Reference: the BET-seq Pho4 binding data (Le et al. 2018)
The other results are listed elsewhere or left out. These are noisy estimates, calculated here from bound and input reads.

The sequences below were run against T1, Pho4 (S. cerevisiae) (UniProt P07270) (assay: relative binding free energy (BET-seq); higher = weaker binding). Conditions: reference: library average.
T1 sequence: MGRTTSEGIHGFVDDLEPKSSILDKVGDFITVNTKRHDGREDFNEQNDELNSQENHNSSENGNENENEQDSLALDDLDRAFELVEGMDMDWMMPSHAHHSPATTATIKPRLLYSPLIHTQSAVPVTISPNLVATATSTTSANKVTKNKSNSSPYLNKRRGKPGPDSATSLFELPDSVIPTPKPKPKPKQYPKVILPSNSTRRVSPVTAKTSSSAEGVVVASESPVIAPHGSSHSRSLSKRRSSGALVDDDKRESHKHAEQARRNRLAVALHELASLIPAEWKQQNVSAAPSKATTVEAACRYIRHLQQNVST

Sequence	relative binding free energy
CTTCGCACGTGGTTTG	-0.06 kcal/mol
TTATGCACGTGATGGA	0.2 kcal/mol
TTGTTCACGTGTGTCG	0.18 kcal/mol
TACCGCACGTGGGTGG	-0.14 kcal/mol
ATTAGCACGTGGCTGA	-0.1 kcal/mol
TTTAGCACGTGAAGCG	0.2 kcal/mol
GGTTTCACGTGCCAGG	0.4 kcal/mol
TGGTTCACGTGGGTTA	0.2 kcal/mol
TTGGACACGTGAACGG	0.26 kcal/mol
CGCGGCACGTGTTGGC	-0.05 kcal/mol
GGGGTCACGTGGAACA	0.25 kcal/mol
AGTGACACGTGATTTA	0.2 kcal/mol
TAGATCACGTGAGATG	0.35 kcal/mol
GGTTACACGTGGGTTG	0.05 kcal/mol
TGGGTCACGTGTCCAG	0.06 kcal/mol
TGGTACACGTGAGTTA	0.3 kcal/mol
CTGCTCACGTGGGAGG	0.15 kcal/mol
AGCGGCACGTGTAAGT	0.04 kcal/mol
GGCGCCACGTGGCGGG	-0.2 kcal/mol
TGAGGCACGTGTTTCG	-0.09 kcal/mol
TGGATCACGTGTGGCC	0.32 kcal/mol
TACTTCACGTGATAGT	0.25 kcal/mol
TTTTTCACGTGCGTGC	0.25 kcal/mol
GGCTTCACGTGGTTAT	0.18 kcal/mol
GGGGACACGTGATGGA	0.27 kcal/mol
TGAAACACGTGGTGGC	-0.03 kcal/mol

Sequence	relative binding free energy
GTGAGCACGTGGCGTA	-0.29 kcal/mol
GATGGCACGTGTGTAA	-0.1 kcal/mol
GTGATCACGTGGCGGG	0.06 kcal/mol
GGTGCCACGTGTTATG	-0.18 kcal/mol
TCTGGCACGTGGTTGA	-0.19 kcal/mol
CATGGCACGTGTTAAG	-0.05 kcal/mol
GGTTCCACGTGGGGGA	-0.06 kcal/mol
TGGTTCACGTGTCAGA	0.3 kcal/mol
TGGAACACGTGATGGT	0.11 kcal/mol
GGACTCACGTGTGTTA	0.25 kcal/mol
GTGTTCACGTGCAGAT	0.22 kcal/mol
GAAGGCACGTGGAGGG	-0.07 kcal/mol
CAGGTCACGTGATGTT	0.23 kcal/mol
TTTAGCACGTGTTGAC	-0.1 kcal/mol
ATTAACACGTGTAGGC	-0.01 kcal/mol
TATGACACGTGTTAAT	0.02 kcal/mol
AGGCACACGTGGGAGT	-0.13 kcal/mol
GCTGTCACGTGAGTTA	0.23 kcal/mol
TGAATCACGTGGTGTC	0.15 kcal/mol
TTCAGCACGTGGTCTT	-0.12 kcal/mol
GGATCCACGTGATAGT	0.35 kcal/mol
ATGGACACGTGTACGT	0.03 kcal/mol
TTCACCACGTGTTGGG	0.14 kcal/mol
TGTCGCACGTGGAGGG	-0.15 kcal/mol
GAGATCACGTGGGGGT	0.13 kcal/mol
GTAAGCACGTGGTACA	0.07 kcal/mol

Sequence	relative binding free energy
GTTTGCACGTGATGTC	0.08 kcal/mol
TACGACACGTGTTGTG	0.06 kcal/mol
AGAGTCACGTGTGCTG	0.06 kcal/mol
ATTTGCACGTGAGGCT	0.08 kcal/mol
TATTGCACGTGCTAGG	0.02 kcal/mol
GGCGTCACGTGCGATG	0.16 kcal/mol
GGTGTCACGTGCGCAT	0.04 kcal/mol
TATATCACGTGTGTTA	0.13 kcal/mol
GGGCTCACGTGCGTTG	0.3 kcal/mol
CTTTTCACGTGTACGT	0.27 kcal/mol
ATGGTCACGTGTGGTC	0.17 kcal/mol
GAATGCACGTGGTAGT	-0.03 kcal/mol
TTGAACACGTGAGGGG	0.32 kcal/mol
TCTATCACGTGCTTGT	0.16 kcal/mol
GGGGCCACGTGTGTAT	-0.05 kcal/mol
CTAGGCACGTGGAGCT	-0.04 kcal/mol
GGGTTCACGTGGGTCT	0.3 kcal/mol
TGATACACGTGGTCGG	0.12 kcal/mol
AAGTACACGTGTGTAT	0.24 kcal/mol
GTAGGCACGTGTATGG	-0.06 kcal/mol
ATACGCACGTGAAGGG	0.24 kcal/mol
ATTGACACGTGTTTTT	0.17 kcal/mol
GATAGCACGTGGTCGG	-0.14 kcal/mol
TATTACACGTGGTTTT	0.01 kcal/mol
ATCATCACGTGTTGTA	0.13 kcal/mol
GATGTCACGTGTAGGT	0.17 kcal/mol

Sequence	relative binding free energy
AGGTTCACGTGGGGTC	0.31 kcal/mol
CGCGGCACGTGGTGTA	-0.21 kcal/mol
AAGGGCACGTGTCGTT	-0.01 kcal/mol
GTATGCACGTGTAGGC	0.14 kcal/mol
GAGAGCACGTGAATGG	0.23 kcal/mol
GGTGGCACGTGGTTGA	-0.11 kcal/mol
TGTAACACGTGATTAT	0.19 kcal/mol
ATATACACGTGAATTG	0.29 kcal/mol
ATGTTCACGTGTCTTA	0.26 kcal/mol
TTTGACACGTGATTTC	0.11 kcal/mol
CAGGGCACGTGTATTG	-0.05 kcal/mol
ATAAGCACGTGTGGTA	-0.04 kcal/mol
TTTCGCACGTGTAATG	0.14 kcal/mol
GTGTCCACGTGATAGT	0.19 kcal/mol
CAAGGCACGTGTGAGG	-0.08 kcal/mol
GGGGGCACGTGGTCAC	-0.09 kcal/mol
AAGGGCACGTGTTCAG	-0.1 kcal/mol
TTCTTCACGTGATTGG	0.31 kcal/mol
ATGGGCACGTGAGGGA	0.18 kcal/mol
AATGGCACGTGGGTAG	-0.16 kcal/mol
GTGGGCACGTGTTTAG	0.02 kcal/mol
GAGAGCACGTGGGATT	-0.13 kcal/mol
CAGGGCACGTGTCAGG	-0.05 kcal/mol
GGCGTCACGTGATGAT	0.3 kcal/mol
GATTTCACGTGGGTCG	0.25 kcal/mol
TGGGACACGTGATTGT	0.22 kcal/mol

Sequence	relative binding free energy
AAGGGCACGTGTGTAT	-0.15 kcal/mol
TGTGCCACGTGCGAGT	-0.06 kcal/mol
TGTGGCACGTGACTAG	0.01 kcal/mol
AGGGTCACGTGTACTG	0.19 kcal/mol
ATCTGCACGTGAGGTA	0.16 kcal/mol
CAATACACGTGAGGTG	0.34 kcal/mol
TCTAGCACGTGGCGTT	-0.07 kcal/mol
TGTCTCACGTGTATGA	0.07 kcal/mol
GCCGTCACGTGGGAGG	0.07 kcal/mol
TGGGGCACGTGTTTTC	-0.02 kcal/mol
TTGGTCACGTGGATAC	0.1 kcal/mol
GACATCACGTGGGGGT	0.1 kcal/mol
TAGATCACGTGTTTCT	0.18 kcal/mol
GCTGGCACGTGTGTTT	-0.02 kcal/mol
CAGGACACGTGGGTGA	-0.05 kcal/mol
TTTAACACGTGGAGGG	0.1 kcal/mol
AATCACACGTGTTAGG	0.19 kcal/mol
GGCTGCACGTGATGAT	0.24 kcal/mol
GGCGTCACGTGGTGAC	0.1 kcal/mol
CGGATCACGTGTGTGA	0.18 kcal/mol
GATGACACGTGGTAGG	-0.02 kcal/mol
GCTATCACGTGTCGTT	0.32 kcal/mol
TTTGGCACGTGCAGTG	-0.1 kcal/mol
CAGGACACGTGTGTGT	0.08 kcal/mol
AGTTGCACGTGTAAGT	0.12 kcal/mol
GTAGACACGTGTGATT	0.14 kcal/mol

Sequence	relative binding free energy
AGATGCACGTGTTGGT	0.06 kcal/mol
TGCATCACGTGCGTTA	0.15 kcal/mol
TAATACACGTGAGTGT	0.18 kcal/mol
ATTTGCACGTGCGTGA	-0.11 kcal/mol
TACGTCACGTGGGCGG	-0.08 kcal/mol
GTTGTCACGTGCGTAA	-0.06 kcal/mol
TGTAGCACGTGGTAGA	-0.08 kcal/mol
TGGTACACGTGCTAGG	-0.12 kcal/mol
GTAGTCACGTGCGTCG	0.1 kcal/mol
GACTTCACGTGTGTTA	0.31 kcal/mol
TGTCTCACGTGTAGGA	0.17 kcal/mol
AGTGTCACGTGATTCT	0.08 kcal/mol
ACAGTCACGTGTTGGA	0.14 kcal/mol
TGTTGCACGTGGGCAA	-0.15 kcal/mol
AGGGGCACGTGTTCTT	-0.14 kcal/mol
CTCTTCACGTGGGTGT	0.13 kcal/mol
CTTAGCACGTGAGGTA	0.14 kcal/mol
ATGTCCACGTGGCGTG	-0.03 kcal/mol
CTGATCACGTGTGGTA	0.13 kcal/mol
TTGGGCACGTGCAAGT	-0.1 kcal/mol
CGGCTCACGTGTCGGT	0.28 kcal/mol
TCGTTCACGTGTGGAT	0.26 kcal/mol
AGGTCCACGTGGGCAG	-0.14 kcal/mol
TCTAGCACGTGCTGGT	-0.15 kcal/mol
GGATGCACGTGTTGAA	0.05 kcal/mol
GAAGACACGTGATGGT	0.32 kcal/mol

Sequence	relative binding free energy
TGGATCACGTGCGGTG	0.04 kcal/mol
TATTTCACGTGGGTGA	0.24 kcal/mol
TTAAGCACGTGTTGAG	0 kcal/mol
TTGTTCACGTGCGATT	0.38 kcal/mol
TGTAGCACGTGCTAGG	-0.24 kcal/mol
AGGGTCACGTGCGGTT	0.09 kcal/mol
AAGGTCACGTGTTAAG	0.18 kcal/mol
ATAGTCACGTGATGAT	0.23 kcal/mol
GTCTTCACGTGGTATT	0.32 kcal/mol
GAAAACACGTGGGGGC	0.06 kcal/mol
GAATTCACGTGTCGTA	0.3 kcal/mol
AATTGCACGTGTGAAG	0.08 kcal/mol
TTGAGCACGTGCATAG	-0.1 kcal/mol
GTTTACACGTGAGTTT	0.42 kcal/mol
GAGGTCACGTGTGGTT	0.23 kcal/mol
CGTGACACGTGGGGTA	-0.18 kcal/mol
GGTGTCACGTGAGGCT	0.37 kcal/mol
AGGAGCACGTGCAAGG	-0.09 kcal/mol
AAGTTCACGTGGGAAA	0.27 kcal/mol
GAGGGCACGTGGCTTA	-0.08 kcal/mol
TCATCCACGTGGTTTG	0.04 kcal/mol
GGTTTCACGTGGCAAT	0.18 kcal/mol
TTAGCCACGTGAAGGG	0.2 kcal/mol
TTAGGCACGTGTGGCG	-0.15 kcal/mol
TGTGGCACGTGTACTC	0.06 kcal/mol
AGGGTCACGTGCGGCT	-0.05 kcal/mol

Sequence	relative binding free energy
TGTAACACGTGGCATG	-0.08 kcal/mol
GTGTCCACGTGGAAGT	0.26 kcal/mol
ATGGGCACGTGACGGC	0.01 kcal/mol
ATTTTCACGTGGGCCT	0.31 kcal/mol
TTTTGCACGTGATTAT	0.17 kcal/mol
CGGAGCACGTGATTTT	0.18 kcal/mol
TCTATCACGTGTGTTG	0.1 kcal/mol
GGAGACACGTGTATGG	-0.08 kcal/mol
GAGTGCACGTGTTTGG	0.04 kcal/mol
TTTGGCACGTGCGCTG	-0.25 kcal/mol
GTATTCACGTGGTCAG	0.23 kcal/mol
GTCAACACGTGTTGTG	0.05 kcal/mol
AAGGACACGTGTGAGT	0.09 kcal/mol
TGTTTCACGTGTGACA	0.26 kcal/mol
CTTAACACGTGATGGT	0.03 kcal/mol
TTATTCACGTGGCTGT	0.15 kcal/mol
GAGGACACGTGGTGAT	0.1 kcal/mol
GCGGGCACGTGTGGTA	-0.1 kcal/mol
ATGCTCACGTGGGGTG	0.04 kcal/mol
ACGGTCACGTGAGGTG	0.21 kcal/mol
TGAGTCACGTGAGAGC	0.41 kcal/mol
GATACCACGTGAGGGG	0.14 kcal/mol
TGATACACGTGTTAGA	-0.04 kcal/mol
ATGGGCACGTGGGACA	-0.28 kcal/mol
AATATCACGTGTGGGA	0.3 kcal/mol
AGGGGCACGTGTATTG	-0.18 kcal/mol

Sequence	relative binding free energy
AGGCGCACGTGTCAGT	-0.06 kcal/mol
GTTGGCACGTGGTTCG	-0.11 kcal/mol
GATAACACGTGGGCGG	-0.01 kcal/mol
TTCTACACGTGTTCGG	0.15 kcal/mol
TCGAACACGTGTTGTT	0.19 kcal/mol
TATGCCACGTGGGATA	-0.09 kcal/mol
AGATCCACGTGTAGGG	0.02 kcal/mol
AATGGCACGTGGGCTA	-0.28 kcal/mol
TGTGTCACGTGTCATT	-0.02 kcal/mol
GAGGGCACGTGCGTAT	-0.01 kcal/mol
TATGACACGTGGAATA	0.15 kcal/mol
GATTTCACGTGCGTGA	0.33 kcal/mol
TGTTCCACGTGGGAAG	0.11 kcal/mol
TGCCACACGTGGGGGT	-0.21 kcal/mol
TGGCGCACGTGATCGT	0.1 kcal/mol
GCGCTCACGTGGTGGG	0.11 kcal/mol
TTGTCCACGTGTGTGA	0.13 kcal/mol
ACTTACACGTGTGGTG	0.11 kcal/mol
TGTTACACGTGCTAAG	0.03 kcal/mol
TGTCCCACGTGTTGGG	-0.14 kcal/mol
AGTGGCACGTGAAAGG	0.07 kcal/mol
TGCGGCACGTGGTAAT	-0.17 kcal/mol
